Test results as given in the supplement of paper PMC11417369.
Some of the results follow.

What follows are sequences tested on PF3D7_0420300 AP2 domain 1 (GST-tagged) (assay: gcPBM binding intensity (ln(normalized median fluorescence intensity)); higher = stronger DNA binding).
Summary of the method: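 Binding intensity is defined as the maximum Masliner-normalised natural-log median intensity across replicate spots for either probe orientation. It was measured on an Agilent 4 × 180k array of primer-extended double-stranded 36-bp intergenic genomic probes and negative controls, to which GST-tagged P. falciparum DNA-binding domains made in E. coli were applied for 1 h in 1× PBS with 1% milk, 0.2 mg/ml BSA, 0.5% salmon testes DNA and 0.03% Triton X-100. Detection was by Alexa488 anti-GST antibody and scanning at 488 nm.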

Sequence | gcPBM binding intensity (ln)
TAATATAAATGAAAGGTGCTTTTGCTTTCTTTTTTT | 9.16
TTTTCTATATAACAACGTACATTTATTATATTATAA [XGTACX_site6148] | 9.21
AAAAAAAAAAAAAATACACACACACCGATATATATA [CACACA_site8142] | 10.1
ATACATATAATAATATGTACATATAATTATATATAT [XGTACX_site913] | 9.14
TTATACTGTACAAAAAGAATAGCAGTATAACAAAAA [CACACA_negctrl_site755] | 9.38
ACAGGATTGGTTCAAACACACATATTATAGGACTAT [CACACA_site6455] | 9.44
AAAAAAAAATCATATTGTACGTAAAAAAAAAAAAAA [XGTACX_site476] | 9.03
AATATGTTTTGTTAGGTTGGTGTTGGTAGAATGTTT [CACACA_negctrl_site1563] | 9.35
CAATATATTTGATTTACACACTTACAATGTATTTAA [CACACA_site5632] | 9.35
CGAAAAAATAAAAAAAAAATAAAATAAAATAAATAA [TGCATGCA_negctrl_site278] | 9.19
AATTAAATGATTTATACATGCATATAAATATAAATA [TGCATGCA_site579] | 9.09
TCTGTAAATATGTATACACACATATATGATCAATAT [CACACA_site3234] | 9.42
AGTAGAAAAGGAACATGTACGAATTAAAAAAATAAT [XGTACX_site2347] | 9.62
ACATATATATATATATATATATATATATTTATTTAT [CACACA_negctrl_site734] | 9.03
TACACCATGATACATACACACAGACATATACACATT [CACACA_site6601] | 9.8
AAAAAACATTTGATCTGTACGCATAGACAATTATAT [XGTACX_site960] | 9.13
TAAAAGAAAGCACATACACACACAAAAAAAAAAAAG [CACACA_site8159] | 10.2
AATAATATGTTATCTCTTACACATATAAAAAATAAA [XGTACX_negctrl_site370] | 9.05
TGTTATATCAATAATATATAATAATACCCTTCTTTT [CACACA_negctrl_site1682] | 9.06
TTATAACATATAAACATGTTTCATCTTACGTATTTT [GTGCAC_negctrl_site694] | 9.45
ATATTTAATTTGTATGGTACAGTACGATCTTTCTTT [XGTACX_site5533] | 9.3
ATAAGAATATATAGAGTGCGTTGAAGAATTATAATA | 9.43
CCCTCAACGAATTTGAGTACACATTTTAAATGATAT [XGTACX_site7763] | 9.14

Sequence | gcPBM binding intensity (ln)
ATCGCAAGATTAATATAAGGAGAAACGTTTATATAT [GTGCAC_negctrl_site267] | 9.13
AAAAAAAAAAGAAACACACACATATAGATTTATAAC [CACACA_site6927] | 10
AATCTAGGTATTTATACACACTAAAATAATATACGA [CACACA_site4515] | 9.42
AAAAAATTAACCGTAACACACACACCGATATATATA [CACACA_site9312] | 10.1
ATTTAAATAATATTCACACACAAAATTAAATTTTAA [CACACA_site6246] | 9.44
GCTCTAATTAATATTTGTACACACATATTTAACCTA [XGTACX_site6808] | 9.73
TTTTTTTTTTTTTTTTGTACATAATTCCATATTTTT [XGTACX_site1789] | 8.74
TGATCTTTACACATATTATATATATATAAAAAAAAA [XGTACX_negctrl_site360] | 8.83
TTTAATAAATAAATAAATAAAATATATTAAAAACCA [CACACA_negctrl_site80] | 9.16
ATATTTTATTATTGTTGTACTTTTTTTTTTTGATTG [XGTACX_site4091] | 9.24
ATAATATGAAAACACACACACACACTAATAAAAAAA [CACACA_site8617] | 10.2
GGCAACAATGTAGATTGTACATATGAATTTTACAAT [XGTACX_site5655] | 9.15
ATATATATTATCATTGTGCACTTATTTATATACCTT | 9.53
ATATTTTGTTTTATAGTGCACATGGGCATATATTAA [GTGCAC_site9435] | 9.19
TTTACTTTTTTTTCTTGTACTCATACATACTATCAT [XGTACX_site4919] | 9.38
AAATTTCAATAATCTACACACATAAAAAAACAAAAG [CACACA_site1702] | 9.86
TGAATAATATACATACGTACATACATATATATAATA [XGTACX_site1302] | 9.13
ATAAAAAGGAAACACACACACACACCCATATATATA [CACACA_site904] | 10.2
TTATCACATAAACGATGTACGTACTAGGTTTTTTTT [XGTACX_site2147] | 9.37
TTTTTTTTTTTTTTTTTTTTCATTCAATTATATTTA [CACACA_negctrl_site712] | 8.33
AACTAATATAATAATACATGCACATAAAAATATATA [TGCATGCA_site606] | 9.52
AAAGGAATATAATGATGTACACAAATATATATACAT [XGTACX_site5347] | 9.53
CACGCATACGGACACACACACACACCGATATATATA [CACACA_site4521] | 10.3

Sequence | gcPBM binding intensity (ln)
TATTTTTTTATTTGTGCATGTCATATTTAAACATAA [TGCATGCA_site1006] | 9.21
ATATAAAAATTAAAATGTACATATCTTATTATAATA [XGTACX_site983] | 9.13
GTTTAAAAAAATTATCAACTTTAAAAAGGTAACATT [XGTACX_negctrl_site203] | 8.99
CAACATAAAAATTAAGCATGCAATAGACTTGTGTTG [TGCATGCA_site417] | 9.54
TAATAAAATAATATCACACATATTTATATATATTAT [CACACA_site5814] | 9.23
GTAGTAAATAGGAGGATGCATATGGCACACATTATA [TGCATGCA_negctrl_site59] | 9.41
CCATAAAAAGGATACACACACACACCGACATATATA [CACACA_site4653] | 10.2
GTATTATATTTCAACTGTACGTAAAACTATTAAAAT [XGTACX_site3679] | 9.22
CAAAAAAATGTGAAGGCATGCAAATATGTAAAATAA [TGCATGCA_site921] | 9.76
ATAAAGCCATACAATACACACATTTTACATGGGGGT [CACACA_site9072] | 9.72
TTCATTTAGCAAGAATGTACTTATATATATATATAT [XGTACX_site3401] | 9.12
ATTTGTAATTTATATTCACACATTCAAAAAAATGAG [CACACA_site6057] | 9
TATAAATTTGTTGTTGCATGCAGTATACCAAAAAAA [TGCATGCA_site445] | 9.17
AAAAATATAATATAATGTACACAAAAAAAAAAAAAT [XGTACX_site4914] | 9.6
TAAAATGTAATCTGAACACACATATTTTTTTAATAT [CACACA_site1768] | 9.29
AATAGCCCATATGGAATACACACTGAAAATAAAAAA [CACACA_site3373] | 9.54
AATTATTTATCGGAATGTACATAAAAACATATGTAT [XGTACX_site7443] | 9.2
AATAATATCATTTAGACACACACTCTTACAATATGT [CACACA_site8832] | 9.55
TATTTAATAAAGAAATAAAAATAAAGAAAAAAAAAA [CACACA_negctrl_site74] | 9.16
ACCTACATAACATACACACGCATATATATAATTTTA [CACACA_site2847] | 9.64
CTTTCTTATTTGAACGCATGCATTTGTACCTTTTAT [TGCATGCA_site671] | 9.36
CATGCAAAAAATTCCACACACACACCCACATATAAA [CACACA_site1229] | 9.92
TATATACAAAATGCCTGTACATATATATTTATTTAT [XGTACX_site761] | 9.36

Sequence | gcPBM binding intensity (ln)
ATATATATATATATAGTGCAAATATCTTCTTTATAA | 9.17
TAATAAACCAAACTAAACAATATATCAAAAAGCACA [CACACA_negctrl_site269] | 9.75
TATTATATCGAACACTGTACTTTTTTATTCAACCTA [XGTACX_site493] | 9.32
GCCTTTTTATTTAGAACACACACAAAAAAAAAAAAA [CACACA_site8520] | 9.3
GTATATAAGTATATATGTACATATATTTTATATATA [XGTACX_site4745] | 9.12
ATATAAGAATAAATAGTGCAAAATAAATGATTATTT | 9.46
AATACGAAGGATAAGAGTACTAATTAAATAAATGAA [XGTACX_site523] | 9.5
TTTTTTTTTTTTTTGGTGCGATCTTTTAAATGATCC | 8.69
TTTTATAATTTAAAATAATGAAACTTCTTTCTATTT [TGCATGCA_negctrl_site324] | 8.97
TTTCTGATATTTTTATATTTTCTTATATATATATAT [GTGCAC_negctrl_site652] | 9.36
TTTAAATTTTAATATGCACACAAAATGTTATATTAA [CACACA_site8015] | 9.15
TACAAATACATTACATGTACATATTTAATAATATCA [XGTACX_site2075] | 9.19
TTTTCAATTAATAATACACACATGTATATATTATTA [CACACA_site3311] | 9.21
AAGAAAAATATATATATAAATAAATAAATATATATA [TGCATGCA_negctrl_site330] | 9.11
TTTGAAAAGTATGAGGTGCAAAAAATGTAATGAAAT | 9.38
CATTTTAAAACAGACACACACCAAAAAAAAAAAAAA [CACACA_site6259] | 9.4
TTTTTCTGTCGTTGTTGTACTTGAGGAGTAACAATT [XGTACX_site7852] | 9.25
TATATTATTATGCATAGTACGTACTGTGATAAGAAT [XGTACX_site2956] | 9.28
TTTTTTTTTTTTTTTTGTACATAATTATATATTTAC [XGTACX_site7540] | 8.91
TAGTATTATTATTATGCACACAAAAATATTTATACA [CACACA_site9219] | 9.36
